Source: a melting point compilation (Tetko et al.; mined from patent text by program, amines drawn as free bases though some values may be those of a salt)

melting point: 192 to 193 °C
SMILES: CCN1C(=O)C(NC(=O)C(F)(F)F)CCc2c1ccc(Nc1ncc(Cl)c(Nc3ccc(N(C)C)cc3OC)n1)c2OC (stereo unspecified)
